The list shows a part of the results. The data describe in vitro nicking of single-stranded DNA by Rep domains for 1 h at 37 °C with 3 µM enzyme; only the middle of the 90-letter strands is printed. Numbers give uncut DNA relative to the enzyme-free pool, as log2; more negative means more cut, near 0 not cut, and no call is made. Counts are relative to all reads; where an enzyme cuts many sequences, the uncut ones exceed 0.
Assays:
Assay in all cases: uncleaved DNA left, log2 of reads against the no-enzyme library (log2 ratio); higher = less cleavage (more negative = more Rep cleavage of the k-mer); sequences stand for … in CTCGTCCG…ACCGGAGA
[1] = system: T1, Rep nickase domain of Muscovy duck circovirus
T1 sequence (residues 1-111 of Rep, tag left off): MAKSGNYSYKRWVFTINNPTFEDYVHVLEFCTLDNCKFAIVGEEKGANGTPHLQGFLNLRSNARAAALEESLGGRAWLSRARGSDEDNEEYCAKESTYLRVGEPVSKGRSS
Method: (§1)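 A pool of 90-nt single-stranded DNAs with seven random bases just before the constant AC of the nick site (name = the seven bases) was cut by 3 µM recombinant His6-SUMO-tagged Rep nickase domain (300 nM DNA, 50 mM HEPES pH 8.0, 50 mM NaCl, 1 mM MnCl2, 1 h, 37 °C, three replicates). Uncut DNA was amplified and sequenced.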

[2] = system: T2, Rep nickase domain of banana bunchy top virus
T2 sequence (residues 1-94 of Rep, tag left off): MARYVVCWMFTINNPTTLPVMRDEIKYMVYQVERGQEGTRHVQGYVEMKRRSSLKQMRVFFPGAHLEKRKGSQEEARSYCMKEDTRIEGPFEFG
Method: as §1

[3] = system: T3, Rep nickase domain of cabbage leaf curl virus
T3 sequence (residues 1-116 of Rep, tag left off): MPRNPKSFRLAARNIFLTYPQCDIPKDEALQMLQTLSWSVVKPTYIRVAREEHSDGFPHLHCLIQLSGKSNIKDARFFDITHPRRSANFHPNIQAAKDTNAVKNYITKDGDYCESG
Method: as §1

[4] = system: T4, Rep nickase domain of chickpea chlorotic dwarf virus
T4 sequence (residues 1-124 of Rep, tag left off): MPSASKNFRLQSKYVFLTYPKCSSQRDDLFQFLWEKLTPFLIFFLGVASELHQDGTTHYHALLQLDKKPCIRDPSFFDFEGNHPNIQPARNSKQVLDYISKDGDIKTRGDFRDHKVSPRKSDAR
Method: as §1

[5] = system: T5, Rep nickase domain of faba bean necrotic yellows virus
T5 sequence (residues 1-98 of Rep, tag left off): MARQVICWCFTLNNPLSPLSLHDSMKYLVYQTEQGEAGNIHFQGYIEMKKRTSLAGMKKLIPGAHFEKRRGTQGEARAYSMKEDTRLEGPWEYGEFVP
Method: as §1

[6] = system: T6, Rep nickase domain of maize striate mosaic virus
T6 sequence (residues 1-117 of Rep, tag left off): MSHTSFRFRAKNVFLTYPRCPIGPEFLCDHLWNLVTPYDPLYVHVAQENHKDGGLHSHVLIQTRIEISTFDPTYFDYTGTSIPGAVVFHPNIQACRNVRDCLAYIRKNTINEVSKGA
Method: as §1

[7] = system: T7, Rep nickase domain of porcine circovirus 2
T7 sequence (residues 2-116 of Rep, tag left off): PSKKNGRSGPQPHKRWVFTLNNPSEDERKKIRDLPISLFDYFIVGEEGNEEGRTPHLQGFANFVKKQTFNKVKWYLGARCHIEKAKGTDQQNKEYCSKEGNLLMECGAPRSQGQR
Method: as §1

[8] = system: T8, Rep nickase domain of tomato yellow leaf curl virus
T8 sequence (residues 1-136 of Rep, tag left off): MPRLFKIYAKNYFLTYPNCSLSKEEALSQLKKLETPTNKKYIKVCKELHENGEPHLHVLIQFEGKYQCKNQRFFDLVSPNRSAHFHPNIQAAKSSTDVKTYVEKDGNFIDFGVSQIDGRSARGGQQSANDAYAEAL
Method: as §1

[9] = system: T9, Rep nickase domain of wheat dwarf virus
T9 sequence (residues 1-137 of Rep, tag left off): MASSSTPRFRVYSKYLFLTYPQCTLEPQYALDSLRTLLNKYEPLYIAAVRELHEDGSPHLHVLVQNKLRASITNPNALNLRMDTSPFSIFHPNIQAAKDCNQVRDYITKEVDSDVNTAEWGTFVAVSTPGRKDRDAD
Method: as §1

Row | Sequence | uncleaved DNA left (log2) [1] | uncleaved DNA left (log2) [2] | uncleaved DNA left (log2) [3] | uncleaved DNA left (log2) [4] | uncleaved DNA left (log2) [5] | uncleaved DNA left (log2) [6] | uncleaved DNA left (log2) [7] | uncleaved DNA left (log2) [8] | uncleaved DNA left (log2) [9]
1 | CAAAGAC | 0.0332 | 0.00414 | 0.0162 | 0.101 | -0.00115 | -0.541 | 0.134 | -0.0663 | -0.119
2 | AAGATAA | 0.0731 | 0.0817 | -0.232 | -0.0564 | 0.0552 | 0.113 | -0.179 | 0.00888 | 0.141
3 | GATGATA | 0.148 | 0.0949 | 0.321 | -0.21 | 0.0916 | 1.25 | 0.0767 | 0.0865 | 0.133
4 | AGGAACG | -0.11 | 0.081 | -0.649 | -0.621 | 0.0345 | -0.896 | 0.195 | -0.00595 | -0.11
5 | AGAAGCC | 0.0551 | 0.073 | 0.013 | 0.121 | 0.0884 | -0.387 | 0.0761 | 0.0021 | -0.0378
6 | TTAGCTC | 0.039 | -0.0295 | 0.0854 | -0.453 | -0.0172 | -0.469 | -0.0494 | -0.0203 | -0.116
7 | ATTAGTA | -0.0174 | -0.0674 | -0.152 | -1.34 | 0.0155 | -0.747 | -0.254 | 0.00837 | -0.0454
8 | TAATGAC | 0.187 | 0.0293 | -3.31 | -2.39 | 0.0717 | -0.84 | 0.136 | 0.0686 | -0.462
9 | TGCGTCC | -0.0467 | -0.0919 | -0.18 | -0.374 | -0.0278 | -0.619 | -0.0603 | -0.0531 | -0.0642
10 | TACAAGG | 0.101 | 0.0615 | 0.409 | 1.14 | 0.074 | 1.1 | 0.143 | 0.0279 | 0.0269
11 | CCCAAGA | -0.0489 | 0.118 | 0.0388 | 0.0311 | 0.0209 | -0.977 | 0.0926 | 0.00913 | -0.00375
12 | GAGGCGA | 0.00461 | 0.021 | -0.0936 | 0.00404 | 0.0474 | -0.18 | 0.109 | 0.0339 | -0.0491
13 | CTTTCTG | -0.0829 | -0.0563 | -0.524 | -0.491 | -0.155 | -0.791 | -0.115 | -0.117 | -0.102
14 | GTCGGAA | 0.109 | 0.0481 | 0.482 | 1.05 | -0.035 | 1.77 | 0.0838 | 0.19 | 0.184
15 | ATGTCAG | -0.12 | -0.107 | -0.697 | -0.525 | 0.0111 | -1.02 | 0.108 | -0.0908 | -0.16
16 | CTCACTG | -0.0563 | -0.0873 | -0.0336 | 0.295 | -0.0203 | 0.86 | 0.0519 | -0.0824 | 0.0564
17 | CATGTGA | -0.0781 | -0.206 | -0.777 | -0.737 | 0.0303 | -1.15 | 0.0839 | -0.0157 | -0.245
18 | GTAGCCC | 0.0767 | -0.0113 | 0.214 | 0.773 | -0.0165 | 1.31 | 0.0655 | 0.0402 | 0.0409
19 | GTCACGC | -0.0462 | 0.065 | 0.178 | 0.507 | -0.0318 | 0.555 | -0.0105 | -0.0358 | 0.0261
20 | CGTAGCG | 0.0805 | -0.0166 | -0.794 | -0.601 | 0.0175 | -1.16 | 0.172 | -0.0573 | -0.0425
21 | CCCTAGA | 0.0423 | -0.0301 | -0.0756 | -0.487 | 0.0439 | -0.863 | 0.0363 | 0.0644 | 0.0617
22 | ATCAAAC | 0.0113 | 0.0378 | -0.0195 | -0.197 | 0.0172 | -0.831 | 0.0767 | -0.0388 | 0.0404
23 | TCAAGAA | 0.0126 | -0.0352 | 0.104 | 0.0783 | 0.0199 | -0.406 | 0.018 | 0.0216 | -0.025
24 | TCGGTGG | 0.115 | -0.00167 | 0.187 | 0.273 | -0.091 | 0.112 | 0.104 | -0.246 | -0.0175
25 | GACCGCA | -0.0542 | 0.00124 | 0.00287 | -0.146 | -0.0514 | -0.284 | -0.0688 | -0.0975 | -0.0232
26 | CCGCTAT | 0.02 | 0.023 | -0.0366 | -0.693 | -0.0424 | -0.404 | -0.0844 | 0.0565 | 0.202
27 | CTACTTA | 0.027 | -0.0693 | -0.0528 | -1.96 | 0.0461 | -0.584 | -0.176 | -0.115 | -0.0126
28 | CTTTAGC | 0.14 | -0.11 | 0.0377 | 0.252 | 0.123 | -0.371 | 0.117 | 0.0867 | -0.0241
29 | GCCCTTA | 0.152 | 0.00526 | 0.547 | 0.389 | 0.0672 | 0.921 | 0.218 | 0.21 | 0.169
30 | AACGTCA | -0.0845 | 0.0321 | -0.022 | -1.68 | 0.0645 | -0.338 | -0.156 | 0.0274 | 0.0139
